# Results: PubChem BioAssay AID1345082 (National Center for Advancing Translational Sciences (NCATS), 2018)
# Hit rate of the full screen: of about 94,000 compounds, about 4,000 (4.3%) were called active. The shares of active, inactive and inconclusive entries below differ from those in the screen. Calls come from the whole dose curve; as a rule, active = well fitted inhibition curve with a large enough effect; inconclusive = small, poorly fitted or top-dose-only effect; inactive = no such curve, though single readings can be large or run the other way. Potencies beside an inconclusive call are fits to weak or partial responses and may not hold up.
# Assay: Cytotoxic Profiling in NIH 3T3 Cell Line of Diverse Libraries Using Quantitative High-Throughput Screening; note: nearly all actives have a fitted effect of over 55% in size
# Settings: NIH 3T3 viability, CellTiter-Glo ATP luminescence, 48-72 h; activity change, negative = cytotoxicity: at 96.7 µM (top of the series) unless noted; series mostly up to 96.7 µM
# Method in brief: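 Mouse fibroblast NIH 3T3 cells, 400 per well, received compound via pintool and were incubated for 48 or 72 hr prior to CellTiter-Glo ATP luminescence measurement.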
# % is set by controls: 0 for no effect and ±100 for the full control effect; potency is the fitted concentration of half-maximal effect; tags give direction and shape of the fitted curve.
Structure (SMILES),Potency,"activity change, negative = cytotoxicity"
CCCCCN(CCC(=O)NCc1ccc2c(c1)OCO2)C(=O)c1cc(C)oc1C,active: 31.6 µM,–
CN1CCN(c2nccc3c(=O)cc(N(C)C4CCOCC4)oc23)CC1,"inconclusive: 56.2 µM [inhibitor, partial curve, poor fit]",–
COc1ccc(-c2[nH]nc3ncc(-c4ccc(OC)nc4)nc23)c(C)c1,"inconclusive: 22.4 µM [inhibitor, full curve, poor fit]",–
CCn1c2c(c(=O)n1Cc1ccccc1)CCN(C(=O)c1ccc(Oc3ccccc3)cc1)C2,"inconclusive: 39.8 µM [inhibitor, partial curve, poor fit]",–
CCC1CCCCN1CCNC(=O)c1cc2c(s1)CN(C1CCCC1)C2 (configuration not stated),"inconclusive: 50.1 µM [inhibitor, partial curve, poor fit]",–
CC(=O)Nc1cccc(-c2nccc3c(=O)cc(-c4ccncc4)oc23)c1,"inconclusive: 50.1 µM [inhibitor, partial curve]",–
CC(=O)N1CC2(Cc3ccccc31)CN(C(=O)Nc1ccccc1)C2,"inconclusive: 112 µM [inhibitor, single point]",–
O=C(Nc1cccc(C(F)(F)F)c1)[C@@H]1CCCN1c1ccnc2ccnn12,"inconclusive: 8.91 µM [inhibitor, full curve, poor fit]",–
O=C(c1ccc(Cl)cc1)N1CC2(CCN(C3CCCCC3)CC2)Cc2ccccc21,"inconclusive: 70.8 µM [inhibitor, single point]",–
COc1ccc(CNC(=O)C2CCCN2c2nccc(Nc3ccc(C)cc3)n2)cc1 (configuration not stated),"inconclusive: 50.1 µM [inhibitor, partial curve, poor fit]",–
CN(C)S(=O)(=O)N1CCOC(c2ccc(Cl)c(Cl)c2)C1 (configuration not stated),"inconclusive: 70.8 µM [inhibitor, partial curve, poor fit]",–
CCNC(=O)c1coc(COc2ccc3c(c2)C(c2cccc(C)c2)N(C(=O)C2CC2)CC3)n1 (configuration not stated),"inconclusive: 15.8 µM [inhibitor, full curve]",–
Cc1ccc(-c2cc3c(=O)n(CCNC(=O)Cc4ccsc4)ccn3n2)c(C)c1,"inconclusive: 50.1 µM [inhibitor, partial curve, poor fit]",–
O=C(Cc1ccc(F)cc1)N1CCN(C(=O)c2nc3cccnc3n(C3CCCC3)c2=O)CC1,"inconclusive: 79.4 µM [inhibitor, partial curve, poor fit]",–
O=C(Nc1ccc(Oc2ccccc2)cc1)O[C@@H]1CO[C@H]2[C@@H]1OC[C@@H]2NS(=O)(=O)c1ccc2ccccc2c1,"inconclusive: 56.2 µM [inhibitor, partial curve, poor fit]",–
COc1ccccc1-c1cccc(CN2CCC(N[S+](C)(=O)[O-])CC2)c1,"inconclusive: 50.1 µM [inhibitor, partial curve, poor fit]",–
CN1CC(=O)N(c2ccc(Cl)cc2)Cc2c(NCCCc3ccccc3)ncnc21,active: 31.6 µM,–
CNC(=O)c1cc(C)nc2onc(C3CCN(C(=O)Cc4ccc(F)cc4)C3)c12 (configuration not stated),–,inactive: -16.1%
C[S+](=O)([O-])c1cccc(-c2ccc3ncn(-c4ccc(F)cc4F)c(=O)c3n2)c1,"inconclusive: 100 µM [inhibitor, partial curve, poor fit]",–

Structure (SMILES),Potency,"activity change, negative = cytotoxicity"
O=c1[nH]c(C2CCCN(Cc3cccc(-c4ccc(F)cc4F)c3)C2)nc2ccc(F)cc12 (configuration not stated),"inconclusive: 44.7 µM [inhibitor, partial curve, poor fit]",–
CCN(C(=O)CCC(=O)N1CCc2nc3cc(-c4ccc(OC)cc4)[nH]n3c(=O)c2C1)c1ccccc1,"inconclusive: 44.7 µM [inhibitor, partial curve, poor fit]",–
Cn1ncc2c(C(=O)Nc3ccccc3F)cc(-c3cccc(C(F)(F)F)c3)nc21,"inconclusive: 56.2 µM [inhibitor, single point]",–
COc1ccc(NC(=O)Cn2ccn3nc4c(c3c2=O)CCCCC4)cc1OC,"inconclusive: 44.7 µM [inhibitor, partial curve, poor fit]",–
Cc1ccc(CN2CC(Oc3ccccc3C(=O)NCc3ccccc3)C2)o1,"inconclusive: 50.1 µM [inhibitor, partial curve, poor fit]",–
O=C(Cc1n[nH]c(=O)c2ccccc12)NC1CCCc2c1[nH]c1c(Cl)cccc21 (configuration not stated),"inconclusive: 3.16 µM [inhibitor, full curve, poor fit]",–
Cc1ccc(S(=O)(=O)N2CCN(C3CCN(CCC(C)C)C3=O)CC2)cc1Cl (configuration not stated),"inconclusive: 44.7 µM [inhibitor, partial curve, poor fit]",–
O=c1[nH]c(N2CCOCC2)nc2c1CCN(Cc1ccc(C(F)(F)F)cc1)CC2,–,inactive: -23.1%
O=C1CC(c2ccccc2)N(Cc2ccncc2)CCCN(C(=O)c2ccco2)CCN1 (configuration not stated),–,inactive: -17.4%
COc1ccc(NC(=O)Cn2c(N(C)Cc3ccccc3)nc(C)cc2=O)cc1OC,"inconclusive: 28.2 µM [inhibitor, partial curve, poor fit]",–
Clc1ccccc1C1(c2ccnc(NCCc3ccncc3)n2)CCNCC1,"inconclusive: 89.1 µM [inhibitor, single point]",–
O=C(c1nc(-c2ccc(Cl)nc2)c2ccccn12)N1CCCC1,"inconclusive: 35.5 µM [inhibitor, partial curve, poor fit]",–
O=C(NCCN1CCOCC1)c1cc(-c2ccc(Cl)cc2Cl)c2nncn2n1,"inconclusive: 70.8 µM [inhibitor, partial curve, poor fit]",–
COC1CN(C)C(=O)CN(S(=O)(=O)c2cccs2)C1 (configuration not stated),"inconclusive: 79.4 µM [inhibitor, single point]",–
Cc1cccc(C)c1-c1nnc2ccc(C(=O)NCCc3ccccc3F)cn12,–,inactive: -12.4%
Cc1noc2c(NC3CCN(C)CC3)cc(-c3cccc(C(F)(F)F)c3)nc12,"inconclusive: 22.4 µM [inhibitor, full curve, poor fit]",–
CCc1ccc(S(=O)(=O)N2CCC(OC3CCN(Cc4ccccc4)CC3)CC2)cc1,active: 35.5 µM,–
COc1ccccc1C(=O)NCCn1ccn2nc(-c3ccc(C)cc3C)cc2c1=O,"inconclusive: 50.1 µM [inhibitor, partial curve, poor fit]",–
